Test results from PMC12136788.
This is one part of the list.

B1: chr19:45711045:45711146:-|3pUTR|ENSG00000177051|msi1|total|mutant (ssRNA)
RNA: GGGAGUUCUACAGUCCGACGAUCGAAUUGGGGGCUGUCAGGUCACAGGUGGGAUCUGGCAUUUUUUUAUGACAGUCCAUUUCCCGAUGGUUUGCCUAUUAAAGAAGUGGGGGGGAAAUACUGUUUUCUCCUUAACCUCAAGCUCAACAGAGGAUUGAGCAUCA
B2: chr16:87831719:87831834:-|3pUTR|ENSG00000103257|msi1_unk|FALSE|overlapping (ssRNA)
RNA: GGGAGUUCUACAGUCCGACGAUCCCUGCGUUUGGAGGCCCCUGGGCUCUCACCCAGUCCCCACCCGCCUGCAGAGAGGGAACUAGGGCACCCCUUGUUUCUGUUGUUCCCGUGAAUUUUUUUCGCUAUGGGAGGCAGCCGAGGCAACAGAGGAUUGAGCAUCA
B3: chr1:36287001:36287112:+|CDS|ENSG00000054118|unk|FALSE|unique (ssRNA)
RNA: GGGAGUUCUACAGUCCGACGAUCCCCCUCCAGUCUGUGGUGGUGAGGCGGCGGUCACCCCGUCCUAGCCCCGUGCCAAAACCUAGUCCUCCACUUUCCAGCACAUCCCAGAUGGGCUCAACUCUGCCGAGUGGUGCCGGGUAUCAACAGAGGAUUGAGCAUCA
B4: chr1:67003359:67003460:-|3pUTR|ENSG00000116704|msi1|total|mutant (ssRNA)
RNA: GGGAGUUCUACAGUCCGACGAUCACUCAAAAGCCGCAAAUCUGUAAAUUGGAUUAAGAACACCUGCCCUACCUACCCGGCAACCGUGUGAAUCCAAAUGCUGCAAUGUGAGAUGAGGUACAAGUAAAGAGCUGUGUUUUGUAACAACAGAGGAUUGAGCAUCA
B5: ENSG00000070961:be:win_3851|3pUTR|ENSG00000070961|bound_else_gene|NA|bound_elsewhere_windowed (ssRNA)
RNA: GGGAGUUCUACAGUCCGACGAUCUUUUUGGGGGGUGGGAGAAAUGAACUGACAGAUAAACAGUAACUCAGCGUAAGUGACCUGUGGAUCAUCAGUAGUACCCAAGCAUGGUCCUGAACAGUGUAUUAGCAGAGCUUUAGUUUACAACAGAGGAUUGAGCAUCA
B6: chr11:60923185:60923286:+|3pUTR|ENSG00000110108|msi1|FALSE|unique (ssRNA)
RNA: GGGAGUUCUACAGUCCGACGAUCCAGAGAGCAGGGUGAGCUGCCAGCUGCCCCUCUCCACCAGGGUACCCUGUCUUGGUGGUUAGGGGCCACUUUUCCUUUGAGGCUCUAGUGGAGGUGGAUGUCCUUCUCUGCCAGGCUUGGCAACAGAGGAUUGAGCAUCA
B7: chr3:107805913:107806014:+|3pUTR|ENSG00000114439|msi1_unk|FALSE|overlapping (ssRNA)
RNA: GGGAGUUCUACAGUCCGACGAUCUACAUGGAGAUUUAAGUUUAAGAUGGUUUAUAUAAUAGGUUAUACCUACAUUUAUAUUGUAGAAUAAAUAUUAAAAAGCCUGUUCCAGAGACUCCCAAGCAGCCUGGGCAGGCAGAUGUACAACAGAGGAUUGAGCAUCA
B8: chr21:25758092:25758193:+|CDS|ENSG00000154727|unk|FALSE|unique (ssRNA)
RNA: GGGAGUUCUACAGUCCGACGAUCGAAUUCAGCAUGACCGAUAUAGACCUCACCACACUCAACAUUUCGGGGAGAGAAUUAUGUAGUCUCAACCAAGAAGAUUUUUUUCAGCGGGUUCCUCGGGGAGAAAUUCUCUGGAGUCAUCAACAGAGGAUUGAGCAUCA
B9: chr6:52500910:52501011:-|3pUTR|ENSG00000065308|msi1|total|mutant (ssRNA)
RNA: GGGAGUUCUACAGUCCGACGAUCUAAUAACUGCAAAUCGCAUGUUCAGCCAGCAGCCUCCUAAGCCCACCUUCCUCCCCCAUCCGAGAACACCCAUCCCCGGUGCUCUCCAGGCUGUGUCAUUGGCAGGGCUUCACAUGCAGGCAACAGAGGAUUGAGCAUCA
B10: chr2:171983412:171983537:+|3pUTR|ENSG00000128708|unk|total|mutant (ssRNA)
RNA: GGGAGUUCUACAGUCCGACGAUCUGAUGACUUUAAUUUUAAAAUCUUGUGACAUUUUGCUUAUACUAAAAGUUAUCUAUCUUCCGUUGAAUAUUUUCUUUUGGAGAGAUUGUAUAUUUUAAAAUACUGUUCCGAGUUUAUGAGCAACAGAGGAUUGAGCAUCA
B11: chr9:132670296:132670397:+|5pUTR|ENSG00000125484|msi1|FALSE|bound_elsewhere (ssRNA)
RNA: GGGAGUUCUACAGUCCGACGAUCCCUCCCCUUUACCGCCCCGUGCGUUUCCUCAGCACUUUAGGAACUAAAGCCUGUCUGGGUAGCUCCCUAACAGGCUCUGGAGCUCAAUCCCUGGGCAGGGAAAAGGGGGUCCUCGGGGCUCAACAGAGGAUUGAGCAUCA
B12: chr4:150265445:150265561:-|3pUTR|ENSG00000198589|unk|total|mutant (ssRNA)
RNA: GGGAGUUCUACAGUCCGACGAUCGGAUCCGCAAAGCAGAAAACUGGCUGCUGGGUUCUGCCGUUUUAAAAAAUCUAUAUUUUCCGUCAUAAUGAGAAGUCUAUUUUCACCAAUUAUGGAAACAUACAGUGGAGCAAGUAAACCCAACAGAGGAUUGAGCAUCA
B13: chr2:176131361:176131462:+|CDS|ENSG00000175879|unk|total|mutant (ssRNA)
RNA: GGGAGUUCUACAGUCCGACGAUCGGAAUUUCUUUUUAACCCCUAUCUGACCAGGAAAAGAAGAAUCGAGGUUUCCCACGCCCCCGCCCUCACCGAGAGACAGGUAAAAAUCUGGUUCCAGAACAGGAGAAUGAAAUGGAAAAACAACAGAGGAUUGAGCAUCA
B14: ENSG00000107863:be:win_5701|CDS|ENSG00000107863|bound_else_gene|NA|bound_elsewhere_windowed (ssRNA)
RNA: GGGAGUUCUACAGUCCGACGAUCAGCACCUUGGCUUCAACAAACAGGCCCCUUCUUUCCAUACCACCACAGUCACCUGACCAAAUAAACGGAGAAAGCUUCCAGAACGUGAGCAAAAAUGCUAGUUCUGCAGCGAAUGCCCAACAACAGAGGAUUGAGCAUCA
B15: ENSG00000107863:be:win_1451|CDS|ENSG00000107863|bound_else_gene|NA|bound_elsewhere_windowed (ssRNA)
RNA: GGGAGUUCUACAGUCCGACGAUCCAUCUGUUAGUUUUAGUAAUCAUAGAACUCGUUCAUGGGAUUAUAUUGAGGGACAGGAUGAAACCUUAGAAAAUGUCAAUUCUGGAACUCCAAUACCUGAUUCCAAUGGAGAGAAAAAACCAACAGAGGAUUGAGCAUCA
B16: chr3:168010103:168010202:-|3pUTR|ENSG00000173905|msi1_unk|FALSE|overlapping (ssRNA)
RNA: GGGAGUUCUACAGUCCGACGAUCGCUCAAACAUAAAUCUGCCUACUGAACUCUAGGAUAUUUAAUUACAAAAAUUAAGAACUUAGACUUUUUUAAAACUUUUGUAUUAGAAAUGCGCAUACAUUUAUAUGAAUAUAUUUUGAUCAACAGAGGAUUGAGCAUCA
B17: chr15:69268886:69268987:+|CDS|ENSG00000138604|unk|FALSE|bound_elsewhere (ssRNA)
RNA: GGGAGUUCUACAGUCCGACGAUCGGAGUUAAAGCUGUGUUUAUGAAUAAACAUGACUGGUAUGAAGAAUAUCCAACCACACCUAGCUCUUUUGUUUUAAAUGGCUUUAUGUAUUCUUUAAUUGGGCUGUAUGACUUAAAAGAACAACAGAGGAUUGAGCAUCA
B18: chr5:133076644:133076819:+|CDS|ENSG00000170606|unk|total|mutant (ssRNA)
RNA: GGGAGUUCUACAGUCCGACGAUCAAAAUUUGAUGAAGUGUCCGUAAAUCACUUCUGUGAAGAAUUUGGGAAGAAAUACAAGCCCGACAUUAAGUCCAAAAUCCGUGCAUUAUUACGACUCUCUCAGGAGUGUGAGAAACUCAACAACAGAGGAUUGAGCAUCA
B19: chr9:99150529:99150630:+|3pUTR|ENSG00000106799|msi1|total|mutant (ssRNA)
RNA: GGGAGUUCUACAGUCCGACGAUCCAUUUGUUAUGUAUGCCGGAGUAAACGUUCGGUGGAUCCUCUGUCUUUGUAACUGAGGUCCGAGCCCGUGUGGUUUUGAGGUCUCACUACACUUUGAGGAAGGCAGCUUUUAAUUCAGUGCAACAGAGGAUUGAGCAUCA
B20: chr5:113019263:113019364:+|3pUTR|ENSG00000172795|msi1|total|mutant (ssRNA)
RNA: GGGAGUUCUACAGUCCGACGAUCCUCAACUGUGAAUGAAAUUCCGAAAGAUAAUUCUUCAGCAGUUGGUUGAUCCGAUGGGUCCGUGCUUUUGGAAUAUAUAACAGCCGACUUGUAUUCUUUAUGCACUAUACAUAUGAUACGCAACAGAGGAUUGAGCAUCA
B21: chr5:180576808:180576909:+|3pUTR|ENSG00000113300|unk|total|mutant (ssRNA)
RNA: GGGAGUUCUACAGUCCGACGAUCUAUUUUCCGUGUCCUAAAUAAUUUUCAAUAAUCUAUAAUCCCUAAAAUGCAAUAAAAACCCGUAUGUUUUCACGGUGUAUAUUUUUUUUCAAAAAUUCUGUAACAAAUAUAUUUAAUGUGCAACAGAGGAUUGAGCAUCA
B22: chr2:224511460:224511569:-|CDS|ENSG00000036257|unk|total|mutant (ssRNA)
RNA: GGGAGUUCUACAGUCCGACGAUCGAAAGCCAGAAAUUUUCCGCAGAAAACCGUGCUUCAGUAUAUAUAAAGAAAGCCGAAGCCCGAAUUAAUGAAGAAACCGAACGAGUGAUGCACUGCCUUGACAAAUCAACGGAAGAACCACAACAGAGGAUUGAGCAUCA

Target: MSI1 full-length (mouse, UniProt Q61474 1-362)
Chain of UniProt Q61474 (Q61474 whole entry): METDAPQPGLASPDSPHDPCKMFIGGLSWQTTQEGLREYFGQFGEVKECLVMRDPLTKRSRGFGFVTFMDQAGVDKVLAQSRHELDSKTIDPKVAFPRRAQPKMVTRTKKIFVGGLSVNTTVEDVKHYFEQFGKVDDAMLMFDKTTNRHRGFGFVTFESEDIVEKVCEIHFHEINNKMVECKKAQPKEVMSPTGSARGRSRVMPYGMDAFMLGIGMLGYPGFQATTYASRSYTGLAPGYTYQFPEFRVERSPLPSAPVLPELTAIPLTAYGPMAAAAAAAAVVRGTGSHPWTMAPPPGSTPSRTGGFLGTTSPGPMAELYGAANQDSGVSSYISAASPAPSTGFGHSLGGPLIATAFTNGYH
Assay: nsRBNS (natural sequence RNA bind-n-seq); RBNS binding buffer (assumed for nsRBNS): 25 mM Tris pH 7.5, 150 mM KCl, 3 mM MgCl2, 0.01% Triton X-100, 500 ug/ml BSA, 20 U/ml SUPERase-In, 4 C; UNK is unkempt and MSI1 is Musashi-1; names of the RNAs are library labels; protein concentration not given here; high values mean tight binding

| Binder | binding signal [enrichment R] |
| --- | --- |
| B1 | 0.378 |
| B2 | 0.371 |
| B3 | 0.473 |
| B4 | 0.583 |
| B5 | 3 |
| B6 | 0.389 |
| B7 | 2.97 |
| B8 | 0.751 |
| B9 | 0.612 |
| B10 | 0.454 |
| B11 | 0.341 |
| B12 | 0.301 |
| B13 | 0.493 |
| B14 | 0.455 |
| B15 | 6.23 |
| B16 | 7.14 |
| B17 | 0.402 |
| B18 | 0.162 |
| B19 | 0.334 |
| B20 | 0.235 |
| B21 | 6.27 |
| B22 | 0.432 |
